Hit rate of the full screen: of about 46,000 compounds, about 60 (0.1%) were called active. Not shown: some 3% with an inconclusive outcome. Calls follow the shape of the dose curve; as a rule, active = well fitted inhibition curve with a large enough effect; inconclusive = small, poorly fitted or top-dose-only effect; inactive = no such curve, though single readings can be large or run the other way. Some of the results follow.

This assay is described as follows: Primary qHTS assay for Inhibitors of ovarian cancer metastasis using an organotypic tumor microenvironment (TME) model. Also: nearly all actives have a fitted effect of over 65% in size.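 As to activity change, negative = inhibition: plate controls were DMSO wells for no effect and tomatine positive control wells for full effect.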 The settings on record: SKOV3ip1-GFP adhesion/invasion on 3D omental model, fluorescence; series mostly up to 45.8 µM; activity change, negative = inhibition: at the top concentration. The gist of the method:
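Adhesion/invasion was scored as fixed GFP-labeled SKOV3ip1 cell counts (488/509 nm), normalized to DMSO and tomatine controls. Cancer cells in serum-free medium, with four compound doses (0.36-46 umol/L), sat 2 hr at RT then 16 hr at 37 C on a 48 hr fibroblast/mesothelial/ECM culture.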
For orientation: Quantitative high-throughput screening tests each substance at several concentrations.
On to `CC(CNC(=O)Cn1c(-c2cccs2)cc2ccccc21)c1ccccc1` (stereo not drawn), for which the “activity change, negative = inhibition” value is inactive: -0.184%.
Still for that read-out and setting: the value for `COC(=O)Cc1c(C)c2ccc3c(c2oc1=O)CN(Cc1ccccc1OC)CO3` was inactive: -14.5%; that for `COc1cccc(C(=O)Nc2c(C(=O)c3ccc(F)cc3)oc3ccccc23)c1` was inactive: -8.42%.
The same measure, in the same setting: the result for `Cc1oc(-c2ccc(Cl)cc2)nc1CSCC(=O)NCc1ccccc1Cl` reads inactive: 22.1%; that for `COc1cc(C2c3c(oc4ccc(C)cc4c3=O)C(=O)N2Cc2ccccc2)ccc1O` (stereo not drawn), inactive: 0.735%; that for `Cc1ccccc1Nc1cc(C(=O)NCCc2ccc(Cl)cc2)c2ccccc2n1`, inactive: -9.96%.
Same read-out and setting: the value for `Cc1ccc2c(CC(=O)N(Cc3ccc(Cl)cc3)Cc3ccco3)coc2c1` was inactive: 2.65%.
`CCC(=O)N1CCCc2cc(S(=O)(=O)N3CCC(C(=O)Nc4ccccc4CC)CC3)ccc21`: the “activity change, negative = inhibition” value was inactive: 1.27%.
As for `O=C(Nc1cccc(F)c1)c1cccc2c1C(=O)N(C1CCCCC1)C2`, the “activity change, negative = inhibition” value is inactive: 2.71%.
The same measure, in the same setting: the result for `Cc1ccc(Cl)cc1N1CCN(CCCNC(=O)c2nnc(Cc3cccc(Cl)c3)o2)CC1` reads inactive: -25.2%; that for `CCCOc1ccc(C2c3c(-c4ccccc4O)n[nH]c3C(=O)N2CCCOCC)cc1OCC` (stereo not drawn), inactive: 3.8%.
In the case of `Cc1cc(C)cc(Nc2nnc(-n3nc(C)cc3C)c3ccccc23)c1`, the “activity change, negative = inhibition” value is inactive: 1.32%.
Still for that read-out and setting: the value for `CN1CCc2nc3sc(C(=O)Nc4cccc(C#N)c4)c(N)c3cc2C1` was inactive: 5.57%.
In the case of `COc1ccccc1NC(=O)Cn1c(=O)n(-c2cccc(Cl)c2)c(=O)c2c1c1cc(C)ccc1n2C`, the “activity change, negative = inhibition” value was inactive: -0.865%.
On the same count and under the same terms, the value for `CC(C)(S)[C@@H](N)C(=O)O` was inactive: 5.55%; that for `CCCOc1ccc(NC(=O)CC2C(=O)N(c3ccc(Cl)cc3)C(=O)N2CCc2ccncc2)cc1` (stereo not drawn) was inactive: 5.78%; that for `Cc1cccc(OCC(=O)Nc2ccc(Cl)c(-c3nc4ccccc4[nH]3)c2)c1` was inactive: 1.91%.
For the compound `CCc1ccccc1NC(=O)CSc1ncc(S(=O)(=O)c2ccccc2)c(=O)[nH]1`, the outcome was inactive.
`CCN1CCN(Cc2c(O)ccc3oc(C)c(C(=O)Nc4ccc(C)cc4C)c23)CC1`: the “activity change, negative = inhibition” value is inactive: 14.3%.
Consider `CCOC(=O)c1ccc(CN(Cc2ccccc2C)S(=O)(=O)c2ccc(F)c(C(=O)Nc3cccc(OC)c3)c2)cc1`, for which the “activity change, negative = inhibition” value was inactive: -2.1%.
Still for that read-out and setting: the result for `O=C1CC(c2nnc(Cc3ccccc3Cl)o2)CN1c1ccccc1` (stereo not drawn) reads inactive: 2.46%; that for `Cc1ccc(-c2cc3c(n2-c2ccccc2F)CC(C)(C)CC3=O)cc1`, inactive: 3.28%.
For the compound `Cc1c(C)n(Cc2ccc(F)cc2)c2ccc(C(=O)Nc3ccc(Cl)cc3)cc12`, the result was inactive.
Consider `O=C(CC1C(=O)N(c2ccccc2)C(=O)N1Cc1ccc2c(c1)OCO2)Nc1ccccc1` (stereo not drawn), for which the “activity change, negative = inhibition” value is inactive: 12%.
Same read-out and setting: the value for `COc1ccc(C)cc1NC(=O)N1CCN(c2cc(-c3noc(C)n3)ccc2C)CC1` was inactive: -1.43%.
Same read-out and setting: the result for `Cc1ccc(NC(=O)c2sc3nc(-c4ccc(F)cc4)ccc3c2N)cc1F` reads inactive: -23.7%.
The same measure, in the same setting: the value for `CCOC(=O)c1cnc2ccc(C)cc2c1NCCc1ccc(OC)c(OC)c1` was inactive: 3.3%; that for `COc1ccc(NC(=O)c2oc3ccccc3c2NC(=O)Cc2cccs2)cc1` was inactive: -15.2%.
For `O=C(CN1C(=O)CSc2ccc(S(=O)(=O)N3CCCC3)cc21)NCc1ccc(Cl)cc1`, the “activity change, negative = inhibition” value was inactive: -1.36%.
On the same count and under the same terms, the value for `COc1ccc(NC(=O)CN2C(=O)COc3ccc(S(=O)(=O)N4CCCCC4)cc32)cc1Cl` was inactive: -25.2%; that for `CCC1CCCCN1CCCNC(=O)c1ccc2c(c1)N(Cc1ccc(Cl)cc1)C(=O)c1ccccc1S2(=O)=O` (stereo not drawn) was inactive: -19.4%; that for `COc1ccccc1N1CCN(c2ccc(-c3nc(-c4ccccc4)no3)cc2[N+](=O)[O-])CC1` was inactive: 1.2%.
On the same count and under the same terms, the value for `O=C(Cn1cc(C(=O)C2CC2)c2ccccc21)Nc1ccc(Br)cc1` was inactive: 1.14%; that for `CC(=O)c1ccc(NC(=O)CCCc2nc(-c3cccc(C)c3)no2)cc1` was inactive: -11.6%.
The same measure, in the same setting: the result for `Cc1ccc(C)c(Cn2c(=O)n(CCCCCC(=O)NCc3ccc4c(c3)OCO4)c(=O)c3sccc32)c1` reads inactive: -4.38%; that for `CN(C(=O)C(=O)Nc1ccc2nc3n(c(=O)c2c1)CCCCC3)c1cccc(C(F)(F)F)c1`, inactive: 1.79%.
As for `Cc1onc(-c2ccc(F)cc2F)c1C(=O)Nc1cccc(C(F)(F)F)c1`, the “activity change, negative = inhibition” value was inactive: -15.7%.
Same read-out and setting: the value for `CCc1ccc(NC(=O)Cn2c(=O)oc3cc(S(=O)(=O)N4CCCCCC4)ccc32)cc1` was inactive: -7.86%; that for `CC(C)Sc1ncc(Cl)c(C(=O)Nc2nnc(C(C)C)s2)n1` was inactive: -12.2%.
`COc1ccc(OC)c(-c2cc(C(=O)NC(C)c3ccccc3)no2)c1` (stereo not drawn): the compound was called inactive.
In the case of `CCCOc1ccc(C2C(=O)N(C3CCC(C)CC3)CC(=O)N2CCC2=CCCCC2)cc1OC` (stereo not drawn), the “activity change, negative = inhibition” value is inactive: -5.52%.
Take `O=C(Nc1ccccc1)c1cccc(S(=O)(=O)Nc2cccc(F)c2)c1`: the “activity change, negative = inhibition” value is inactive: -17.6%.
On the same count and under the same terms, the result for `CCc1ccc(CNC(=O)c2cc(-c3ccc(Br)s3)nc3ccccc23)cc1` reads inactive: -8.52%.
With `O=S(=O)(Nc1ccc2nc(-c3cccc(Cl)c3)oc2c1)c1ccccc1`, the call was inactive.
For the compound `COc1ccc(CCNC(=O)c2c(C)nn(-c3ccc(F)cc3)c2-n2cccc2)cc1OC`, the “activity change, negative = inhibition” value is inactive: -14.7%.
`Cc1ccc2onc(CC(=O)N(C)c3ccccc3)c2c1`: the “activity change, negative = inhibition” value was inactive: 3.5%.
Still for that read-out and setting: the value for `Cc1ccc(S(=O)(=O)N2CCOCC2)cc1C(=O)Nc1ccccc1C(=O)O` was inactive: -1.4%; that for `Cc1cccc(N2CCN(C3(c4ccccc4)C(=O)c4ccccc4C3=O)CC2)c1C` was inactive: -10.4%.

Values taken from PubChem BioAssay AID1963576 (National Center for Advancing Translational Sciences (NCATS), 2024).
